Source: PubChem BioAssay AID485281 (National Center for Advancing Translational Sciences (NCATS), 2010)
The campaign covered roughly 350,000 compounds. About 260 (0.074%) were called active. Inconclusive results, whose numbers are uncertain, are shown with a selection of clear calls. The call rests on the fitted dose curve; in most records, active means well fitted inhibition curve with a large enough effect; inconclusive means small, poorly fitted or top-dose-only effect; inactive means no such curve, though single readings can be large or run the other way. Where the call is inconclusive, the potency comes from a doubtful curve fit.

target: Ferritin light chain (Equus caballus) (UniProt P02791); experiment: qHTS Assay for Identification of Novel General Anesthetics; settings: apoferritin/1-aminoanthracene competitive binding, fluorescence; activity change, negative = displacement: at 77.5 µM (top of the series); further: nearly all actives have a fitted effect of over 20% in size
Chain of UniProt P02791 (P02791 whole entry, looked up): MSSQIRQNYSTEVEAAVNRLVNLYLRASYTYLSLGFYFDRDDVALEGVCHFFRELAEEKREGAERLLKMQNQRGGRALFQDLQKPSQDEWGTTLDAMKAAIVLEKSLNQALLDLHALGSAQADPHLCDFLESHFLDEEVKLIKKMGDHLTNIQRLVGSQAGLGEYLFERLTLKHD
Summary of the method: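 Apoferritin-based anesthetic binding model; compound displacement of fluorescent 1-AMA measured as endpoint fluorescence after 10 minutes at room temperature, scaled to free-ligand and complex controls.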
On the % scale 0 is the no-effect control and ±100 the full control effect; potency means the concentration at half of the fitted maximal effect; tags describe the fitted curve by direction and shape.

| Structure (SMILES) | Potency | activity change, negative = displacement |
| --- | --- | --- |
| COc1ccc(-n2cnnc2SCC(=O)N2CCN(S(=O)(=O)c3ccccc3)CC2)cc1 | inconclusive: 22.4 µM [inhibitor, partial curve] | – |
| N#Cc1nc(-c2ccco2)oc1N1CCC(Cc2ccccc2)CC1 | – | inactive: 94.8% |
| CCCCCCCCC[n+]1cccc2c3ccccc3ccc21 | – | inactive: 5.72% |
| CCc1ccc(CNC(=O)c2cnc3sc(N4CCCCC4)nn3c2=O)cc1 | – | inactive: -5.27% |
| CC(C)Oc1ccc(N2CC(C(=O)Nc3ccccn3)CC2=O)cc1 (stereo not given) | inconclusive: 39.8 µM [inhibitor, single point] | – |
| CCc1ccc(S(=O)(=O)Nc2cccc(-c3ccc(N4CCC(C)CC4)nn3)c2)s1 | – | inactive: -11.2% |
| Cc1cc(NC(=O)NCc2ccc3c(c2)CCN3C(=O)c2ccccc2)ccc1Br | – | inactive: -12.5% |
| CN(Cc1nc(-c2cnccn2)no1)CC1(c2ccccc2)CC1(C)C (stereo not given) | inconclusive: 39.8 µM [inhibitor, partial curve] | – |
| COc1ccc(S(=O)(=O)N2CCSC2C)cc1C (stereo not given) | inconclusive: 15.8 µM [inhibitor, partial curve] | – |
| O=C(COC(=O)c1cccnc1)c1ccc(Cl)cc1 | inconclusive: 35.5 µM [inhibitor, partial curve] | – |
| O=C(CSc1nnc(-c2ccccc2)o1)NCC1CCCCC1 | inconclusive: 11.2 µM [inhibitor, partial curve] | – |
| Cc1cc2nc(C)n(CCCNC(=O)Nc3cccc4ccccc34)c2cc1C | inconclusive: 22.4 µM [inhibitor, partial curve] | – |
| O=C(COc1ccccc1)NCCSc1ccccc1 | inconclusive: 50.1 µM [inhibitor, single point] | – |
| Cc1ccc(OCC(=O)N/N=C/C=C/c2ccco2)cc1C | inconclusive: 12.6 µM [inhibitor, partial curve] | – |
| O=C(c1ccc(C(=O)N2CCCc3ccccc32)s1)N1CCCc2ccccc21 | inconclusive: 17.8 µM [inhibitor, partial curve] | – |
| CSc1ncc(Cl)c(C(=O)Nc2ccc(S(=O)(=O)N3CCCC(C)C3)cc2)n1 (stereo not given) | inconclusive: 31.6 µM [inhibitor, partial curve] | – |
| c1ccc(CNc2nc3ccccc3n3cnnc23)nc1 | – | inactive: 39.5% |
| COc1ccc(CNC(=O)c2sc3nc4c(c(C(F)(F)F)c3c2N)CCC4)cc1OC | – | inactive: -0.8% |
| CC(C)(C)OC(=O)N1CCC(c2cc(=O)n3[nH]cc(C(=O)Nc4ccc(F)c(Cl)c4)c3n2)CC1 | – | inactive: -6.02% |
| Cc1ccc(CNC(=O)COC(=O)c2cc3c(s2)CCC(C)C3)cc1 (stereo not given) | inconclusive: 56.2 µM [inhibitor, single point] | – |
